Test results reported in PubChem BioAssay AID1645887 (National Center for Advancing Translational Sciences (NCATS), 2021).
Where “and” joins values, the source holds several entries; their conditions need not be identical. Identical values can stand only once. In all, about 16,000 compounds went through this assay and about 40 (0.2%) were called active. Another 1% or so got no clear call; they are omitted. Calls come from the whole dose curve; as a rule, active = well fitted activation curve with a large enough effect; inconclusive = small, poorly fitted or top-dose-only effect, or another doubt; inactive = no such curve, though single readings can be large or run the other way. This is one part of the list.

biological target: Rap guanine nucleotide exchange factor 4 (Homo sapiens) (UniProt Q8WZA2); assay: Validation qHTS for agonist of cAMP-regulated guanine nucleotide exchange factor 4 (EPAC2); conditions: EPAC2 Rap1B BODIPY-GDP exchange, fluorescence; activation: hits give high values;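 note: exchange makes BODIPY-GDP fluorescence drop when released from Rap1B; series mostly up to about 150 µM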
Method in brief: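 Fluorescent exchange assay: 100 nM EPAC2 with 250 nM RAP1B-BODIPY-GDP and 50 uM GDP; compound added, 5 min at room temperature, then read (ex 480/em 540 nm) every 5 min for 30 min. Normalized to 6.5 mM cAMP agonist control.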
% is set by controls: 0 for no effect and ±100 for the full control effect.

UniProt Q8WZA2, sequence (Q8WZA2 whole entry, looked up): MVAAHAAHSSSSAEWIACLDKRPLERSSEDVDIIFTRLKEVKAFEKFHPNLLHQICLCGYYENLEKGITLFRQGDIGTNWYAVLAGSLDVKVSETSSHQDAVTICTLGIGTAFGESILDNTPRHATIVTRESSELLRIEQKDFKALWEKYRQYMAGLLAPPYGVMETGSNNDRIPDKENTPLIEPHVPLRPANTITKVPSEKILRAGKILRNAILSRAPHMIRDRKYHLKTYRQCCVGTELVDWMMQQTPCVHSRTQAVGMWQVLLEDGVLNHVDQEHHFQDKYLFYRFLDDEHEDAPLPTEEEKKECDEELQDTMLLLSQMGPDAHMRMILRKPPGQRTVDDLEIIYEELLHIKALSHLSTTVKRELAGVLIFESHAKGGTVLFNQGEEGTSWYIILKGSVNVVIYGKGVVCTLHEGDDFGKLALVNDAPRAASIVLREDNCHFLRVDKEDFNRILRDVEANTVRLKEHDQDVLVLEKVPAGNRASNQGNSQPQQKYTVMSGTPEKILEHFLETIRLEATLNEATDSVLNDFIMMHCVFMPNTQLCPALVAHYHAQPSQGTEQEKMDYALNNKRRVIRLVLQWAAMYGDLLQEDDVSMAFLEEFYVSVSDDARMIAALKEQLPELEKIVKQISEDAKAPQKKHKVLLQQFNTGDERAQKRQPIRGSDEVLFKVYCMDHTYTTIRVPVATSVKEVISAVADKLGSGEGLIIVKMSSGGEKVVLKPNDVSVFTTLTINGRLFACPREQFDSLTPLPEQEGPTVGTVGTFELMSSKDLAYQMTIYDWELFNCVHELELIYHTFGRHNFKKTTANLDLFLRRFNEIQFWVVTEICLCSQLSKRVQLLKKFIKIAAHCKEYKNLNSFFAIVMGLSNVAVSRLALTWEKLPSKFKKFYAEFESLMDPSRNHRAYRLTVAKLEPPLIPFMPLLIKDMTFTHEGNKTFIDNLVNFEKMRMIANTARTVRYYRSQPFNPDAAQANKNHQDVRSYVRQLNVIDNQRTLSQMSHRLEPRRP

activation, inactive:
CCc1cccc2c(C(O)(c3c[nH]c4c(CC)cccc34)c3c[nH]c4c(CC)cccc34)c[nH]c12 -26.7%, CCC1CN(Cc2cn[nH]c2-c2ccc(OC)cc2)Cc2cc(OC)ccc2O1 (stereo unspecified) -1.83%, CO/N=C(\C(=O)N[C@@H]1C(=O)N2C(C(=O)[O-])=C(C[n+]3ccc(N)n3CCO)CS[C@H]12)c1csc(N)n1 -0.99%, CN(C)c1ncc2nc(-c3ccc(F)cc3)c(=O)n(-c3ccccc3)c2n1 -9.61%, c1ccc(CNc2ncnc3ccc(-c4ccoc4)cc23)cc1 -26.4%, COc1ccc(-c2cc3ncc(C)n3c(Nc3ncccc3C(N)=O)n2)cc1OC -29.9%, O=C1OCCN1/N=C/c1ccc([N+](=O)[O-])o1 23.5% and -4.66%, NC(=O)c1ccc([N+](=O)[O-])cc1Cl -15.8%, COCc1c(C(=O)N2CCN(c3ccccc3)CC2)cnn1-c1nccc(-c2ccco2)n1 1.98%, CC1=CC(=O)C2=C(C)CCC3C(C)C(=O)OC3C12 (stereo unspecified) -3.54%, O=C(c1csnn1)N1CCC2(CCCN(c3ccncc3)C2)CC1 6.72%, CC(C)(C)[C@@H]1CCC(=O)N(CC[C@H](N=[N+]=[N-])c2ccccc2)CC1 -16.6%, COc1ccc(-c2nc3cc(C)ccc3cc2CN(C(=O)c2ccc(C)s2)C2CC2)cc1OC -19.5%, O=C(/C=C/C(=O)Oc1ccccc1C(=O)O)Oc1ccccc1C(=O)O -0.456%, O=S1(=O)CCOC[C@H](c2ccccc2)N1Cc1cccc(F)c1 -22.1%, CCOC(=O)N1CCN(Cc2ccc3c(c2)CN(C(=O)c2noc4c2CCCC4)CCO3)CC1 -10.3%, O=C(Nc1ccc(Oc2ccc(Cl)cc2)c(Cl)c1)c1cc(I)cc(I)c1O -1.43%, c1ccc2c(c1)Sc1ccccc1N2CCN1CCCC1 -7.08%, Fc1cccc(/C=N\N=C/c2cccc(F)c2)c1 -7.59%, Cc1ccc(CNc2nc(CN3CCNC(=O)C3)nc3ccccc23)o1 7.11%, CCOC(=O)Oc1c(OC)cc(C(=O)O[C@@H]2C[C@@H]3CN4CCc5c([nH]c6cc(OC)ccc56)[C@H]4C[C@@H]3[C@H](C(=O)OC)[C@H]2OC)cc1OC -0.25%, Cc1noc(C)c1-c1cc(NCc2ccccc2)ncn1 -7.49%, CN(C)c1nc2cc3c(cc2cc1CN(CC1CCCO1)C(=O)c1cccc(F)c1)OCO3 (stereo unspecified) -0.994%, O=C(c1ccncc1)N1CCC2(CCC(CNC(=O)C3(N4CCOCC4)CCCCC3)O2)CC1 (stereo unspecified) -2.74%, Cc1c(O)c(=O)ccn1C -2.65%, COc1cc(=O)n2c(c1C(=O)NC(C)c1ccco1)CCN(C(=O)c1[nH]c(C)cc1C)CC2 (stereo unspecified) -1.19%, Cc1c(C(=O)NCC2(N3CCOCC3)CCCC2)cnn1-c1nccc(-c2ccccc2F)n1 -0.878%, CC(=O)OC1CC(OC(C)=O)[C@]2(C)C(CC(=O)[C@]3(C)C2CC[C@@]2(C)C(c4ccoc4)OC(=O)C4O[C@@]423)C1(C)C (stereo partly specified) -7.29%, Cc1ccc([N+](=O)[O-])cc1S(=O)(=O)N(C)C -86.1%, CC#C[C@]1(O)CC[C@H]2[C@@H]3CCC4=CC(=O)CCC4=C3[C@H](c3ccc(N(C)C)cc3)C[C@@]21C -30.1%, Cc1oc(-c2ccccc2NC(=O)c2ccccn2)nc1CNC(=O)c1cccc(C#CC(C)(C)O)c1 12.3%, CC[C@]1(O)C[C@@H]2CN(CCc3c([nH]c4ccccc34)[C@](C(=O)OC)(c3cc4c(cc3OC)N(C=O)[C@H]3[C@@](O)(C(=O)OC)[C@H](C(=O)OC)[C@@]5(CC)C=CCN6CC[C@]43[C@H]65)C2)C1 -11.8%, O=S1(=O)CCO[C@H]2Cc3ccccc3[C@H]2N1Cc1ccccc1Br -25.9%, CCC(=O)O[C@]1(C(=O)CCl)[C@@H](C)C[C@H]2[C@@H]3CCC4=CC(=O)C=C[C@]4(C)[C@@]3(F)[C@@H](O)C[C@@]21C -20.1%, O=C1CCNCCN1[C@H](CO)Cc1ccccc1 -14.8%, CCc1cc(C(=O)N2CCOc3ccc(CN4CCN(Cc5ccccn5)CC4)cc3C2)no1 -17.7%, O=C(NCc1nnc2n1CCN(C(=O)c1cccc(Cl)c1)CC2)C1CC1 -2.97%, CN(C)CC/C=C1\c2ccccc2Sc2ccc(Cl)cc21 -6.69% and -7.82%, c1ccc([C@H]2CN3CCSC3=N2)cc1 -22.8% and -64.1%, CN1C[C@H]2c3ccccc3Oc3ccc(Cl)cc3[C@@H]2C1 -5.32%, COc1ccc(-n2c(=O)c(-c3cccs3)nc3cnc(Oc4ccccc4)nc32)cc1 -2.82%, N[C@@H](CCCP(=O)(O)O)C(=O)O -1.88%, C=Cc1ccccc1 -2.95%, CC(C)(CNC(=O)c1cnn(-c2nccc(-c3cc4ccccc4o3)n2)c1C1CC1)N1CCOCC1 -8.26%, O=C(Cc1ccc[nH]c1=O)c1ccc(F)cc1 -10.9%, CCCCNC(=O)[C@@H]1Cc2ccccc2N1C(=O)[C@H](N)CC -9.91%, COCCn1c(=O)c(-c2cc(F)cc(F)c2)nc2cnc(N3CCN(C)CC3)nc21 -16.5%, C[C@]12CCC(=O)C=C1CC[C@@H]1C2[C@@H](O)C[C@@]2(C)[C@H]1CC[C@]2(O)C(=O)CO (stereo partly specified) 3.87%, COc1cccc(Cn2c(=O)c(-c3cc(F)cc(F)c3)nc3cnc(N(C)C)nc32)c1 -5.15%, CC(=O)Nc1ccccc1-c1nc(CNC(=O)c2cccc(-n3cccn3)c2)c(C)o1 0.628%, CC(C)NCC(O)c1ccc2ccccc2c1 (stereo unspecified) -7.88% and 2.44%
